# This is one part of the list.
# Molecular target: T1, OsWOX13 (Oryza sativa, UniProt Q5QMM3 1-267)
# T1 sequence: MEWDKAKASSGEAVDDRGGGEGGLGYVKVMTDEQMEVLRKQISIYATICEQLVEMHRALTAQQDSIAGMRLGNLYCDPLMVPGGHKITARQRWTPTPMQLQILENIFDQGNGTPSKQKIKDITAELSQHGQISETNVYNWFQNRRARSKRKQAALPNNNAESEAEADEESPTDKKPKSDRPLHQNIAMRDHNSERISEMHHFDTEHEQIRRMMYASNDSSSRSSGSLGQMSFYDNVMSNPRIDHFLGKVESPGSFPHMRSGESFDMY
# Test: protein-binding microarray (RPBM); PBS, 2% BSA, 51.3 ng/ul salmon testes DNA, 50 uM zinc acetate, 200 nM TF, 25 C, 1 h; high values mean tight binding
# Conditions: protein: recombinant; tags: N-terminal polyhistidine and DsRed monomer fusion (pET32a); label: CyDye5-dUTP incorporated in the synthesized complementary strand; 3' TTTTT single-stranded linker to array surface; dsDNA, one strand shown
# Procedure, shortened: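 Binding signal is defined as the fluorescence intensity of each feature in arbitrary units, read on an Axon 4000B scanner. Transcription factors with N-terminal polyhistidine and DsRed fusions came from E. coli BL21-CodonPlus and were purified on Ni–NTA. They were incubated at 200 nM for 1 h at 25 °C on a custom Agilent array that had been made double-stranded with Cy5-dUTP, with 50 µM zinc acetate present, and the array was washed.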
row,Sequence,binding signal
1,TTAATTTGATCGATAAGCAAGCTTATTTAGCTGATAAATCCGGAGTCACCTAGTGCAG,5160 fluorescence intensity (a.u.)
2,GGACGTGATTGAAACTCAACAACCGGTTAAGGGATGTGATCGGAGTCACCTAGTGCAG,44200 fluorescence intensity (a.u.)
3,GCAAAATTTAAAATTATGTTGTCATTTTAATATATTTGAACGGAGTCACCTAGTGCAG,13700 fluorescence intensity (a.u.)
4,AACTCAAATTAAATTAATATATTCCCTCCATCTCTAAATACGGAGTCACCTAGTGCAG,6660 fluorescence intensity (a.u.)
5,GTTATGAGACTGATCAATTTTCATTAGATTTGCTCACTGCCGGAGTCACCTAGTGCAG,5640 fluorescence intensity (a.u.)
6,AACTATTAATTAATTCCCTGGGTCTATAATGATTTTGGATCGGAGTCACCTAGTGCAG,30500 fluorescence intensity (a.u.)
7,AAGCTTATTGGGATAAATTAGCTAAAGAGAGGGTGTAGTGCGGAGTCACCTAGTGCAG,5050 fluorescence intensity (a.u.)
8,ACAAAATTTAGTATATACAGACCTTTTCCTATAAAGTCAACGGAGTCACCTAGTGCAG,4810 fluorescence intensity (a.u.)
9,ACCACCATTTAATTGGGCCACCCTCCCCACCCGTCTCTCACGGAGTCACCTAGTGCAG,10300 fluorescence intensity (a.u.)
10,AACAGTCAGTTTCCATTAATTAATGGGCGCCATAGCTGTGCGGAGTCACCTAGTGCAG,15900 fluorescence intensity (a.u.)
11,CTAAACTCCCTATCAATTTGTACCATGTGTACTAAACAAGCGGAGTCACCTAGTGCAG,16500 fluorescence intensity (a.u.)
12,TTAGCGAATTAATTAGTGTGGTAATCAGCTGCTAACTACGCGGAGTCACCTAGTGCAG,15600 fluorescence intensity (a.u.)
13,ATATATATGATGAAATGTGACTAGCTAAATTTATCTAAGCCGGAGTCACCTAGTGCAG,3590 fluorescence intensity (a.u.)
14,CGCAACCGCAATCACATTGTGTTATCTTGTCTCCGGCCAGCGGAGTCACCTAGTGCAG,6350 fluorescence intensity (a.u.)
15,ATGAAATTTAATTCCAGCTTAGCAGATAATATGATTCGGGCGGAGTCACCTAGTGCAG,4180 fluorescence intensity (a.u.)
16,TAAAATTAGGATGACAGAGCATCCTAGGCAATAATTAAGCCGGAGTCACCTAGTGCAG,6600 fluorescence intensity (a.u.)
17,GAAAATGATAATCATATTTGCATATGGATCTTTGATAGGACGGAGTCACCTAGTGCAG,19900 fluorescence intensity (a.u.)
18,TGTTAGATGATAAAACATGATTAATATTTTATGTGTGACTCGGAGTCACCTAGTGCAG,4360 fluorescence intensity (a.u.)
19,TCTTAAGTTTGTAATAATTAAAACTCAATTAGTCACACGACGGAGTCACCTAGTGCAG,6950 fluorescence intensity (a.u.)
20,GTGATGATATAAACACAAATTCTATTTGCGTTGCACACTGCGGAGTCACCTAGTGCAG,5700 fluorescence intensity (a.u.)
21,AATCCTTAACTGCTCGGATATTTCAATTTGGTCACCAGAGCGGAGTCACCTAGTGCAG,4480 fluorescence intensity (a.u.)

row,Sequence,binding signal
1,ACAACAATTGATGGACCTGAAGCCAATGTATAGGCCACCCCGGAGTCACCTAGTGCAG,6950 fluorescence intensity (a.u.)
2,ACTGTTGATTCGGGTTAAATTGTCACATTGGACAAAACCACGGAGTCACCTAGTGCAG,10600 fluorescence intensity (a.u.)
3,GAAGAAATTGAACGCGACAACGAGTGCATGTCATATTCAGCGGAGTCACCTAGTGCAG,4560 fluorescence intensity (a.u.)
4,CAATACCAACAATCAATCAATTGTCTTTTAAATTGGTCCACGGAGTCACCTAGTGCAG,36300 fluorescence intensity (a.u.)
5,GCAGGGAATTGATGAGCTCCGTGATTGGACTGCCAAACGCCGGAGTCACCTAGTGCAG,45600 fluorescence intensity (a.u.)
6,GTCACTGACTGACTAAATCGAAACAAGTCAAACAACCAAACGGAGTCACCTAGTGCAG,15200 fluorescence intensity (a.u.)
7,CCAAATCATTGGCAAATTTTGGTAGTAACAAATGTTTTGGCGGAGTCACCTAGTGCAG,17400 fluorescence intensity (a.u.)
8,GCAGATTAGTCGTTAGTGGTGACAGAAACGGCAAAAGTGGCGGAGTCACCTAGTGCAG,6220 fluorescence intensity (a.u.)
9,CTTAATTAGCTAGCTAGCCGCTCAAGTCATATATATATATCGGAGTCACCTAGTGCAG,21100 fluorescence intensity (a.u.)
10,ATTGTATGTTAATTGTGCACCTTTTGATCGATGGAGACGACGGAGTCACCTAGTGCAG,5200 fluorescence intensity (a.u.)
11,ATAACTTTAATTCGATTTTAGATTGTTACTACATTTTGAGCGGAGTCACCTAGTGCAG,15200 fluorescence intensity (a.u.)
12,TTTATACAACTATTAACTTAATTAATGTTTACCATATTATCGGAGTCACCTAGTGCAG,7160 fluorescence intensity (a.u.)
13,ACATGATTATATGATGCACTATTGTGACACAATGATGAGTCGGAGTCACCTAGTGCAG,21100 fluorescence intensity (a.u.)
14,CATGTTGTTTGAGCAATTTAATTGCCATCTATTTTGAATTCGGAGTCACCTAGTGCAG,6330 fluorescence intensity (a.u.)
15,GACCGGTGATTAGGTTTTCAAGACAATGTTGTATTTTCCTCGGAGTCACCTAGTGCAG,10300 fluorescence intensity (a.u.)
16,CAAATGAACAATCTGATCGAGATGACGACATCTGATCTAGCGGAGTCACCTAGTGCAG,3420 fluorescence intensity (a.u.)
17,CTTAATATGTGTTAAACTTTTCAATGTGTTTCCTATTGAACGGAGTCACCTAGTGCAG,7340 fluorescence intensity (a.u.)
18,TCTAACGTAAAATTTATTATAATAAATATGTGGTTCAAAGCGGAGTCACCTAGTGCAG,5580 fluorescence intensity (a.u.)
19,GACTGTGATCAAGCTAATTTTATGTCGCCATAAATATAGCCGGAGTCACCTAGTGCAG,4000 fluorescence intensity (a.u.)
20,CATGATAGAATAGGCAATAATCTATACCTAGCTATCTTTTCGGAGTCACCTAGTGCAG,14300 fluorescence intensity (a.u.)
21,GAACATATGATTAGCGTGCTGTTATATATTCTGTCAGGTTCGGAGTCACCTAGTGCAG,24600 fluorescence intensity (a.u.)
